Measured values published in the RNAGym collection of RNA variant scans (doi:10.1073/pnas.2313332121).
Variants at the floor of the assay are shown more often than the library holds them.

B1: TPR 5TU (parent)
chain: GGAUCUUCUCGAUCUAACAAAAAAGACAAAUCUGCCACAAAGCUUGAGAGCAUCUUCGGAUGCAGAGGCGGCAGCCUUCGGUGGCGCGAUAGCGCCAACGUUCUCAACUAUGACACGCAAAACGCGUGCUCCGUUGAAUGGAGUUUAUCAUG

Variants of: B1
Experiment: polymerase ribozyme fitness, log enrichment relative to wild type (log ratio); higher = more active; in vitro selection for triplet polymerase activity
In short: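 Only genotypes with ≥10 input reads and ≥1 read per output were kept after Illumina sequencing of input and output libraries. These libraries were PCR-built, transcribed mutants of each subunit of a heterodimeric triplet polymerase ribozyme, each put through one triplicate in vitro selection round with frozen incubation at −7 °C, gel excision of extended constructs, streptavidin-bead capture and RT-PCR. Fitness is a logarithmic ratio of genotype enrichment to wild-type enrichment, from inverse-variance-weighted replicate averages, with the logarithm in base 2.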

Row | Variant | polymerase ribozyme fitness (log ratio)
1 | A17U A21U G50C C54G C57A A60G C87G G100C G140A U151G | ≤ -4.2
2 | A17U G59A G74A G100A G126U | ≤ -4.2
3 | A17U A20C G50A C79A C87G C114A U135A | ≤ -4.2
4 | A17U G84U | -1.75
5 | A17U G84U C85U C87G C96A A142U U148G | ≤ -4.2
6 | A17C A23U A91U G112U G140C | ≤ -4.2
7 | C18U C43G U44G G67U G81C G84A C96A G141U U144A U151C | ≤ -4.2
8 | A17U U31G G67A | ≤ -4.2
9 | C18G C72U G86U G88C A150G | ≤ -4.2
10 | A16U C75A C93U A97U A122G G141C | ≤ -4.2
11 | C18G A24U A26U G81A U82A A113C C116A | ≤ -4.2
12 | A17G A30U A73G C76U C85G U101G C123A G124U | ≤ -4.2
13 | C18G A37C C96G A106G | -1.07
14 | A17U A26U U45A A64G C85G A138G G143U | ≤ -4.2
15 | A17U A19C A23C A52G U130A U144G | ≤ -4.2
16 | A17U U31G U55A U82A C87G C95U U104C C114A U144A | ≤ -4.2
17 | A17C C57G C99G C103G | ≤ -4.2
18 | C18U C85G C99G C125A A137U U151C | ≤ -4.2
19 | C18U A30G C51A C57A C76U C103G A120U | ≤ -4.2
20 | C18U A19G U33A G58C C96U C118A A121G | ≤ -4.2
21 | A17U A40U A47G U78C A89C U134A | ≤ -4.2

Row | Variant | polymerase ribozyme fitness (log ratio)
22 | A17C A21U A29U U53G A73G G94A | ≤ -4.2
23 | C18U C38G A40G U61A G81C C96A U146C | ≤ -4.2
24 | A17G G86U A97U | -2.08
25 | A17U A52C A66G C85G | ≤ -4.2
26 | C18A A28C A29U U55G A66U G68C A91G C118U U135A | ≤ -4.2
27 | C18G C43A A52C G71A A91U C95G U146C | ≤ -4.2
28 | A17U C36U C85A U135C | ≤ -4.2
29 | C18U A24U A49C A89U C93G G117A | ≤ -4.2
30 | A17U A20C A47C A49U C93A C103A U104C | ≤ -4.2
31 | C18G A24U C93A U130G A147U | ≤ -4.2
32 | C18U A20U A22C G48A C76G | ≤ -4.2
33 | A17U A29G G50C G83U | ≤ -4.2
34 | A16U U31A A64U C85U A91G C131A | ≤ -4.2
35 | C18U A21U A60G U77C A107U G126A | ≤ -4.2
36 | C18G A19C G88A G92U C95U U134A | -4.03
37 | C18U A37U G48A C85G C132G | ≤ -4.2
38 | C18U A30U C38A A39C U55C A97G | ≤ -4.2
39 | A17U A20U A37U G48U C96A U101C | ≤ -4.2
40 | C18A G92A A120G A121C U148C | ≤ -4.2
41 | A16U G42U U45C A73G U78A G92A C123A G143C | ≤ -4.2
42 | C18G C35U C75U C95U A120G U134C | -2.68

Row | Variant | polymerase ribozyme fitness (log ratio)
43 | C18G A20U A29G U56A G65C C93A | ≤ -4.2
44 | C18U C35G U55C C57A A66G G81A C85U | ≤ -4.2
45 | C18G A20U C63A U101C U151G | ≤ -4.2
46 | A17G C38A U45A C69A C85U A142C C149U U151G | ≤ -4.2
47 | A17G A19U A29U G48C A52C G83A C131G U148C | ≤ -4.2
48 | A17G G143U | -2.24
49 | A17U A47C G83A A98U G133A U148C | ≤ -4.2
50 | A17U A23G A73G U90C C132U U134A U146G | ≤ -4.2
51 | A17U G58C C118G A120G | ≤ -4.2
52 | C18U A29C U78G G92A A147C | ≤ -4.2
53 | C18A C32U A37U A39U C85A C87U A150U G152U | ≤ -4.2
54 | A16U C116A | -0.257
55 | C18A A22G G81U C87G C108G A120G G152A | ≤ -4.2
56 | A17U U44A C54G U55G G62C C87A C99U A150G G152C | ≤ -4.2
57 | A17U G59U C93U C114G | -3
58 | C18U A97G C131G | -3.22
59 | C18U C79G C96G | ≤ -4.2
60 | A17G C51A C79U | ≤ -4.2
61 | A17G A23U A26U C116G A138C A142C | ≤ -4.2
62 | A17U G42U G48A C54U U61G U77A G86A A137U | ≤ -4.2
63 | A17G G58A | 1.26

Row | Variant | polymerase ribozyme fitness (log ratio)
64 | C18G G59C G88C G100A A107U G141C | ≤ -4.2
65 | A17U A22C C76U G86U A91C U144G | ≤ -4.2
66 | A17U G92A | -2.84
67 | A17G C27G A73G C95A C99U U104G G117U U148C | ≤ -4.2
68 | A17U C18U C96G C125U | -1.1
69 | A17G A30C A52G U53A C79A C93G A120U G128A | ≤ -4.2
70 | A17U A21C G88U C93A U101C C105G C116U | ≤ -4.2
71 | A17C A26G C96U G140A | ≤ -4.2
72 | A17G A39G C75U C87G C93U U102G | ≤ -4.2
73 | A16U C131A U135C | ≤ -4.2
74 | A16U G42C G68A C72G C87G G126A | ≤ -4.2
75 | A17U A24U C36A G59A U77G G83A A98U C105U C116G | ≤ -4.2
76 | A17C U45A G84U C132A G136U | ≤ -4.2
77 | A16U U55A A91G G117U | ≤ -4.2
78 | C18U A28U U82A | ≤ -4.2
79 | A17C C76G A113C C118U | ≤ -4.2
80 | A17C G92C | 0.012
81 | A17U A39U A98G G133C | ≤ -4.2
82 | C18G A21G C93U C149A | ≤ -4.2
83 | A17G A30U C57G G141U | ≤ -4.2
84 | A17C A28C C93G C131U | ≤ -4.2
